Test in all cases: Primary Screen for Target Class Profiling of Small Molecule Inhibitors of Methyltransferases
The target of assay [1] is Glycine N-methyltransferase (Homo sapiens) (UniProt Q14749). The note with it: purified enzyme, MTase-Glo SAH luminescence; measured here: GNMT inhibition; at 40 µM; stronger effect = lower value. In short, it runs like this:
(§1)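 Each enzyme was assayed with SAM and its substrate. SAH formation detected by MTase-Glo luminescence; single-point 40 uM screen[…].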

The target of assay [2] is Guanidinoacetate N-methyltransferase (Homo sapiens) (UniProt Q14353). As to conditions: purified enzyme, MTase-Glo SAH luminescence; measured here: GAMT inhibition; at 40 µM; stronger effect = lower value. An outline of the steps: as §1
Assay [3] has as its target Histamine N-methyltransferase (Homo sapiens) (UniProt P50135). The note with it: purified enzyme, MTase-Glo SAH luminescence; measured here: HNMT inhibition; at 40 µM; stronger effect = lower value. In short, it runs like this:
as §1

Assay [4] concerns the target Nicotinamide N-methyltransferase (Homo sapiens) (UniProt P40261). The note with it: purified enzyme, MTase-Glo SAH luminescence; measured here: NNMT inhibition; at 40 µM; stronger effect = lower value. In short, it runs like this:
as §1

The target in assay [5] is Phenylethanolamine N-methyltransferase (Homo sapiens) (UniProt P11086). The note with it: purified enzyme, MTase-Glo SAH luminescence; measured here: PNMT inhibition; at 40 µM; stronger effect = lower value. An outline of the steps:
as §1

The values below come from PubChem BioAssay AID1745853 (National Center for Advancing Translational Sciences (NCATS), 2022).

Structures are written as SMILES. The list shows a part of the results. These are further read-outs of the screen, such as a control signal, another cell line or another target. No call is given for them.
% is set by controls: 0 for no effect and ±100 for the full control effect.

In the case of `O=C(c1ccncc1)N1CCC(Cc2noc(-c3ccccc3)n2)C1` (stereo not given), the activity change, negative = inhibition was -5.34% in assay [1]; -5.7% in assay [2]; -0.195% in assay [3]; -8.26% in assay [4]; -10.6% in assay [5].
Take `COc1cc(N2CCN(C)CC2)ccc1Nc1nccc(-c2cn(C)c3cnccc23)n1`: the activity change, negative = inhibition in assay [1] is -10.2%; in assay [2], -0.47%; in assay [3], -20.9%; in assay [4], -27.4%; in assay [5], -14.9%.
The like results for `C[C@@H](NCC1CCCC1)c1onc(-c2ccc(Cl)cc2)c1C(=O)O` were, in that order, -6.16%, -9.39%, -2.82%, -7.74% and -11.5%.
Take `CNC(=O)[C@H]1O[C@@H](n2cnc3c(NCc4ccc(N)cc4)ncnc32)[C@H](O)[C@@H]1O`: the activity change, negative = inhibition in assay [1] was -8.66%; in assay [2], 4%; in assay [3] it was -4.3%; in assay [4] it was -3.21%; in assay [5], 2.15%.
The like results for `COC(=O)C1=CO[C@@H](O[C@@H]2O[C@H](CO)[C@@H](O)[C@H](O)[C@H]2O)[C@H]2[C@@H]1C=C[C@@]21C=C([C@H](C)O)C(=O)O1` were, in that order, 1.46%, 2.43%, 8.27%, -9.78% and 4.85%.
With `COc1ccc2c(c1)c(NC(C)=O)c1n2CC(C)(C(=O)NCCC(C)C)N(Cc2ccco2)C1=O` (stereo not given), the activity change, negative = inhibition stood at 6.25% in assay [1]; 1.92% in assay [2]; 10.4% in assay [3]; 14.6% in assay [4]; 3.2% in assay [5].
The like results for `CN(CC(=O)Nc1ccc(F)c(Cl)c1)S(=O)(=O)c1ccc2[nH]c3c(c2c1)CCCC3` were, in that order, -5.2%, 3.76%, -1.71%, -4.24% and -0.088%.
As for `CCOc1ccc(CCN2C(=O)c3cc(-c4ccccc4)nn3CC2(C)C(=O)NCc2ccccc2)cc1` (stereo not given), the activity change, negative = inhibition in assay [1] was 3.52%; in assay [2] it was -0.517%; in assay [3], 4.51%; in assay [4], 2.35%; in assay [5] it was -2.79%.
Regarding `CC(CCC1(O)OC2CC3C4CC=C5CC(O[C@@H]6O[C@H](CO)[C@@H](O[C@@H]7O[C@@H](C)[C@H](O)[C@@H](O)[C@H]7O)[C@H](O)[C@H]6O[C@@H]6O[C@@H](C)[C@H](O)[C@@H](O)[C@H]6O)CCC5(C)C4CCC3(C)C2C1C)CO[C@@H]1O[C@H](CO)[C@@H](O)[C@H](O)[C@H]1O` (stereo not given in full), the activity change, negative = inhibition in assay [1] is 2.27%; in assay [2] it was 1.85%; in assay [3], 6.76%; in assay [4] it was -8.8%; in assay [5], -4.32%.
For the molecule `Cc1cnc(C2CCOCC2)n1C1CCN(S(=O)(=O)c2ccc3c(c2)OCCO3)CC1`, the activity change, negative = inhibition is 1.35% in assay [1]; 2.07% in assay [2]; 10.4% in assay [3]; 0.006% in assay [4]; 4.74% in assay [5].
Take `O=C(Cn1ccc2cc(S(=O)(=O)N3CCCCC3)ccc21)NCc1cccc(Cl)c1`: the activity change, negative = inhibition is 5.45% in assay [1]; 0.529% in assay [2]; 6.43% in assay [3]; -5.62% in assay [4]; 0.464% in assay [5].
Turning to `COc1ccc(-c2nnn3c2nc(NCc2cccc(OC)c2)c2ccccc23)cc1`, the activity change, negative = inhibition was 0.276% in assay [1]; 4.46% in assay [2]; 3.02% in assay [3]; 2.3% in assay [4]; -3.16% in assay [5].
As to `Cc1ccc(N2C(=O)c3cc4sccc4n3CC2(C)C(=O)NC2CCCCC2)cc1C` (stereo not given), the activity change, negative = inhibition was -1.35% in assay [1]; 4.84% in assay [2]; 1.24% in assay [3]; 7.23% in assay [4]; -2.28% in assay [5].
The like results for `CC(C)NC(=O)c1ccc2c(=O)n(C(C)C)c3nn(CC(=O)NC4CCCCC4)c(=O)n3c2c1` were, in that order, 2.99%, 3.05%, 2.39%, -0.647% and -1.02%.
The like results for `Cc1cc(C(=O)N2CCN(c3cccc(Cl)c3)CC2)n(-c2ccccc2)n1` were, in that order, -0.477%, -3.52%, 2.59%, -25.2% and -10.4%.
The like results for `CC(C)S(=O)(=O)N1CCC2(CC1)CC1C(=O)NCCN1C2` (stereo not given) were, in that order, -7.01%, -7.75%, -2.9%, -9.93% and -17.3%.
Regarding `Cc1ccc2n1CCN(C(=O)Nc1cccc(Cl)c1)C2C(C)C` (stereo not given), the activity change, negative = inhibition in assay [1] is 10.2%; in assay [2], 1.6%; in assay [3], -0.177%; in assay [4] it was 0.94%; in assay [5], 3.62%.
The like results for `C=C1CC[C@H]2[C@@](C)(CCC(O)[C@@]2(C)CO)[C@@H]1/C=C/C(=C\C(=O)O)C(=O)O` (stereo not given in full) were, in that order, 0.91%, 1.92%, 9.47%, -10.3% and -1.69%.
The like results for `Cc1ccc(CNS(=O)(=O)c2cc3c(cc2Cl)n(C)c(=O)n3C)cc1` were, in that order, 6.12%, 0%, -1.66%, 0.815% and 1.77%.
For `COc1ccc(C(=O)Cn2nc3n(C(C)C)c(=O)c4ccc(C(=O)NC(C)C)cc4n3c2=O)cc1`, the activity change, negative = inhibition in assay [1] was 0.042%; in assay [2], 0%; in assay [3], 4.9%; in assay [4], -1.95%; in assay [5], 3.73%.
The like results for `CCOC(=O)c1cc2n(n1)CC(C)(C(=O)NC1CCCCCC1)N(c1ccc(C)c(F)c1)C2=O` (stereo not given) were, in that order, -0.493%, 0.301%, 2.13%, 5.22% and -0.544%.
For the molecule `CCC(C)NC(=O)c1ccc2c(=O)n(C(C)C)c3nn(Cc4c(F)cccc4Cl)c(=O)n3c2c1` (stereo not given), the activity change, negative = inhibition in assay [1] stood at 7.05%; in assay [2], 0%; in assay [3], 5.09%; in assay [4], 2.48%; in assay [5], 3.35%.
Take `COc1cc2c(cc1O)CC[C@@H]1[C@@H]2CC[C@]2(C)[C@@H](O)CC[C@@H]12`: the activity change, negative = inhibition was -5.64% in assay [1]; 8.04% in assay [2]; 2.82% in assay [3]; -6.03% in assay [4]; -5.95% in assay [5].
Regarding `Cc1ccccc1NC(=O)CSc1nnc2[nH]c(=O)c(C(C)(C)C)nn12`, the activity change, negative = inhibition in assay [1] was 12.2%; in assay [2], 0.573%; in assay [3] it was 6.96%; in assay [4] it was -1.54%; in assay [5], 3.6%.
With `CN(Cc1ccccc1)Cc1nc(C2CCOC2)no1` (stereo not given), the activity change, negative = inhibition was -2.52% in assay [1]; -1.11% in assay [2]; -1.15% in assay [3]; -0.37% in assay [4]; -3.18% in assay [5].
The like results for `O=C(Nc1ccc(Oc2ccccc2)cc1)O[C@@H]1CO[C@H]2[C@@H]1OC[C@@H]2n1nnnc1-c1ccc(-c2ccccc2)cc1` were, in that order, -6.12%, -5.69%, -9.98%, -9.22% and -17.8%.
In the case of `CC(C)NC[C@H](O)COc1ccc(CCOCC2CC2)cc1`, the activity change, negative = inhibition in assay [1] is -2.45%; in assay [2] it was -3.93%; in assay [3] it was 9.43%; in assay [4] it was -10.3%; in assay [5] it was 0.839%.
`CCCCOc1ccc(-c2cc3n(n2)CC(C)(C(=O)NC2CCCCC2)N(CCCOC)C3=O)cc1` (stereo not given): the activity change, negative = inhibition in assay [1] is -1.35%; in assay [2], 0%; in assay [3] it was 3.7%; in assay [4], 1.92%; in assay [5], 2.52%.
